This is one part of the list.
Columns and labels:
Experiment in all cases: glycan array binding signal (z-score within array); higher = stronger binding
Settings in all cases: glycan notation: IUPAC condensed, linker removed
[1] = biological target: Gal(b1-4)GlcNAc(b1-2)Man(a1-3)[Gal(b1-4)GlcNAc(b1-2)Man(a1-6)]Man(b1-4)GlcNAc(b1-4)GlcNAc
Method in brief: (§1)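 From the Consortium for Functional Glycomics database, 3228 arrays were curated, keeping only those whose protein sequence was available. Binding is given as a within-array Z-score averaged across arrays sharing a protein sequence and across linkers. Negative Z-scores can be read as non-binding.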

[2] = biological target: Gal(b1-4)GlcNAc(b1-2)Man(a1-3)[Gal(b1-4)GlcNAc(b1-2)Man(a1-6)]Man(b1-4)GlcNAc(b1-4)[Fuc(a1-6)]GlcNAc
Method in brief: as §1

[3] = biological target: Gal(b1-4)GlcNAc(b1-2)Man(a1-3)[Gal(b1-4)GlcNAc(b1-2)Man(a1-6)][Gal(b1-4)GlcNAc(b1-4)]Man(b1-4)GlcNAc(b1-4)[Fuc(a1-6)]GlcNAc
Method in brief: as §1

[4] = biological target: Gal(b1-4)GlcNAc(b1-2)Man(a1-3)[Gal(b1-4)GlcNAc(b1-2)Man(a1-6)][GlcNAc(b1-4)]Man(b1-4)GlcNAc(b1-4)[Fuc(a1-6)]GlcNAc
Method in brief: as §1

[5] = biological target: Gal(b1-4)GlcNAc(b1-2)Man(a1-3)[GlcNAc(b1-2)Man(a1-6)]Man(b1-4)GlcNAc(b1-4)GlcNAc
Method in brief: as §1

[6] = biological target: Gal(b1-4)GlcNAc(b1-2)Man(a1-3)[GlcNAc(b1-4)][Gal(b1-4)GlcNAc(b1-2)Man(a1-6)]Man(b1-4)GlcNAc(b1-4)GlcNAc
Method in brief: as §1

[7] = biological target: Gal(b1-4)GlcNAc(b1-2)Man(a1-3)[Man(a1-6)]Man(b1-4)GlcNAc(b1-4)GlcNAc
Method in brief: as §1

[8] = biological target: Gal(b1-4)GlcNAc(b1-2)Man(a1-6)Man(b1-4)GlcNAc(b1-4)GlcNAc
Method in brief: as §1

[9] = biological target: Gal(b1-4)GlcNAc(b1-2)Man(a1-6)[GlcNAc(b1-2)Man(a1-3)]Man(b1-4)GlcNAc(b1-4)GlcNAc
Method in brief: as §1

[10] = biological target: Gal(b1-4)GlcNAc(b1-2)Man(a1-6)[Man(a1-3)]Man(b1-4)GlcNAc(b1-4)GlcNAc
Method in brief: as §1

[11] = biological target: Gal(b1-4)GlcNAc(b1-2)[Gal(b1-4)GlcNAc(b1-4)]Man(a1-3)[Gal(b1-4)GlcNAc(b1-2)Man(a1-6)]Man(b1-4)GlcNAc(b1-4)GlcNAc
Method in brief: as §1

[12] = biological target: Gal(b1-4)GlcNAc(b1-2)[Gal(b1-4)GlcNAc(b1-4)]Man(a1-3)[Gal(b1-4)GlcNAc(b1-2)[Gal(b1-4)GlcNAc(b1-6)]Man(a1-6)]Man(b1-4)GlcNAc(b1-4)GlcNAc
Method in brief: as §1

[13] = biological target: Gal(b1-4)GlcNAc(b1-2)[Gal(b1-4)GlcNAc(b1-4)]Man(a1-3)[GlcNAc(b1-4)][Gal(b1-4)GlcNAc(b1-2)Man(a1-6)]Man(b1-4)GlcNAc(b1-4)GlcNAc
Method in brief: as §1

[14] = biological target: Gal(b1-4)GlcNAc(b1-2)[Gal(b1-4)GlcNAc(b1-4)]Man(a1-3)[GlcNAc(b1-4)][Gal(b1-4)GlcNAc(b1-2)[Gal(b1-4)GlcNAc(b1-6)]Man(a1-6)]Man(b1-4)GlcNAc(b1-4)GlcNAc
Method in brief: as §1

[15] = biological target: Gal(b1-4)GlcNAc(b1-2)[Gal(b1-4)GlcNAc(b1-6)]Man(a1-6)[Gal(b1-4)GlcNAc(b1-2)Man(a1-3)]Man(b1-4)GlcNAc(b1-4)GlcNAc
Method in brief: as §1

[16] = biological target: Gal(b1-4)GlcNAc(b1-2)[Gal(b1-4)GlcNAc(b1-6)]Man(a1-6)[Gal(b1-4)GlcNAc(b1-2)Man(a1-3)]Man(b1-4)GlcNAc(b1-4)[Fuc(a1-6)]GlcNAc
Method in brief: as §1

[17] = biological target: Gal(b1-4)GlcNAc(b1-2)[Gal(b1-4)GlcNAc(b1-6)]Man(a1-6)[GlcNAc(b1-4)][Gal(b1-4)GlcNAc(b1-2)Man(a1-3)]Man(b1-4)GlcNAc(b1-4)GlcNAc
Method in brief: as §1

[18] = biological target: Gal(b1-4)GlcNAc(b1-2)[Gal(b1-4)GlcNAc(b1-6)]Man(a1-6)[GlcNAc(b1-4)][Gal(b1-4)GlcNAc(b1-2)[Gal(b1-4)GlcNAc(b1-4)]Man(a1-3)]Man(b1-4)GlcNAc(b1-4)[Fuc(a1-6)]GlcNAc
Method in brief: as §1

[19] = biological target: Gal(b1-4)GlcNAc(b1-3)Gal(b1-3)GalNAc
Method in brief: as §1

B1: Arath Fbox (Arabidopsis thaliana), NP_178341.1 (protein)
chain: EFTWGRKRRVKSESSPFDSFPEDCISYIISFTNPRDACVAATVSKTFESTVKSDIIWEKFLPADYESLIPPSRVFSSKKELYFSLCNDPVLFDDDKKSVWLEKASGKRCLMLSAMNLSIIWGDNPQYWQWIPIPESRFEKVAKLRDVCWFEIRGRTNTRVLSPRTRYSAYIVFKGVDKCYGFQNVAIEAAVGVVGQEPSRRLICFSEAIRRGRRNVVKPKQREDGWMEIELGEFFNDGGIMDNDEIEMSALETKQLNRKCGLIIQGIEIRPAKILAAAAASFLEQKLISEEDLNSAVDHHHHHH
In the case of B1, the “glycan array binding signal (z-score)” value [1] is reported as -0.122, the “glycan array binding signal (z-score)” value [2] is reported as 1.3 and the “glycan array binding signal (z-score)” value [3] is reported as -0.066. The “glycan array binding signal (z-score)” value [4] was -0.707, the “glycan array binding signal (z-score)” value [5] was -0.602 and the “glycan array binding signal (z-score)” value [6] was -0.698. The “glycan array binding signal (z-score)” value [7] was -0.048, the “glycan array binding signal (z-score)” value [8] was 2.46 and the “glycan array binding signal (z-score)” value [9] was -0.209. For the same binder, the “glycan array binding signal (z-score)” value [10] was 0.739, the “glycan array binding signal (z-score)” value [11] was -0.507 and the “glycan array binding signal (z-score)” value [12] was 0.106. For the same binder, the “glycan array binding signal (z-score)” value [13] was -0.348, the “glycan array binding signal (z-score)” value [14] was 0.281 and the “glycan array binding signal (z-score)” value [15] was 0.24. For the same binder, the “glycan array binding signal (z-score)” value [16] was -0.492, the “glycan array binding signal (z-score)” value [17] was 1.89 and the “glycan array binding signal (z-score)” value [18] was -0.488. For the same binder, the “glycan array binding signal (z-score)” value [19] was -0.431.
